Each structure is given as a SMILES string. Screen size: about 5,400 compounds; about 190 (3.5%) showed an effect of 50% or more. The list shows a part of the results.

This passage reports result_ITMP results from paper PMC13083723 (Patterns, 2026).

This test has as its system Vero-E6. Nature of the test: primary screen, phospholipidosis by LipidTOX staining; higher = more effect of the substance. The following applies: 10 µM. The essentials: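 Drug-induced phospholipidosis detected with HCS LipidTOX Red reagent in Vero-E6 cells. Compounds tested at 10 μM, with amiodarone (10 μM) as positive control and DMSO (0.1 v/v %) as vehicle.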
Regarding `CCC(C)C(CC)C(N)=O` (centres unmarked), the result_ITMP is recorded as 4.28%.
For `CC(C)(C)NC(=O)[C@@H]1CN(Cc2cccnc2)CCN1C[C@@H](O)C[C@@H](Cc1ccccc1)C(=O)N[C@H]1c2ccccc2C[C@H]1O` the value was -2.01%; for `COc1ccc2cc1Oc1ccc(cc1)C[C@H]1c3c(cc4c(c3Oc3cc5c(cc3OC)CCN(C)[C@@H]5C2)OCO4)CCN1C`, 57%; for `NC1=N[C@@]2(c3cc(NC(=O)c4ccc(F)cn4)ccc3F)COC[C@H]2CS1`, 3.41%.
For `Nc1ccc(F)cc1NC(=O)c1ccc(CNC(=O)/C=C/c2cccnc2)cc1` the value was 0.35%.
For `Cn1c(=O)c2[nH]c(Br)nc2n(C)c1=O` the value was 3.28%.
As to `COc1ccc(COc2cc3oc(=O)c4cc(C(C)O)ccc4c3cc2OC)cc1` (centres unmarked), the result_ITMP is given as 3.4%.
The value for `C=C(C)[C@@H]1CCC(C)=C[C@H]1c1c(OC)cc(C)cc1OC` was -4.61%; that for `COC1=C(OC)C(=O)C(C/C=C(\C)CC/C=C(\C)CC/C=C(\C)CC/C=C(\C)CC/C=C(\C)CC/C=C(\C)CC/C=C(\C)CC/C=C(\C)CC/C=C(\C)CCC=C(C)C)=C(C)C1=O` was 3.01%.
For `COC(=O)Nc1nc2cc(C(=O)c3ccc(F)cc3)ccc2[nH]1` the value was -4.81%; for `Cc1cc(/C=C2\SC(=O)N(c3ccccc3)C2=O)c(C)n1-c1cccnc1`, -6.01%.
For `O=C(O)c1cc(O)c2ccccc2n1` the value was 3.47%.
On to `O=C(O)c1ccc(N2C(=O)/C(=C/c3ccc(-c4ccc([N+](=O)[O-])cc4)o3)C=C2c2ccccc2)cc1`, for which the result_ITMP was 0.54%.
As to `OC[C@H]1O[C@@H](Oc2cc3c(O)cc(O)cc3[o+]c2-c2ccc(O)c(O)c2)[C@H](O)[C@@H](O)[C@@H]1O`, the result_ITMP is -2.67%.
For `CCOC(=O)c1ccc(N2NC(=O)/C(=C/c3ccc([N+](=O)[O-])o3)C2=O)cc1` the value was 0.97%; for `O=C(Nc1ccc(C(F)(F)F)cn1)N1CCN(c2ncccc2C(F)(F)F)CC1`, -3.87%.
For `CCOC(=O)c1ccc(O)cc1` the value was 4.07%.
The value for `CC(=O)O[C@H]1Cc2ccccc2N(C(N)=O)c2ccccc21` was -0.57%; that for `CCOc1ccc(Cc2cc([C@@H]3O[C@H](CO)[C@@H](O)[C@H](O)[C@H]3O)ccc2Cl)cc1` was -8.44%.
Consider `CN(C)CCN1C(=O)c2cccc3cc(N)cc(c23)C1=O`, for which the result_ITMP was determined as 19.8%.
The value for `CCC(C)CNCC(=O)N1CCc2sccc2C1COc1cccc(C)c1` (centres unmarked) was 57.8%; that for `CCNC(C)CN1CCc2c(c(=O)oc3ccccc23)C1` (centres unmarked) was -0.92%; that for `O=C1CC[C@@]2(O)[C@H]3Cc4ccc(O)c5c4C2(CCN3CC2CC2)[C@H]1O5` was -5.93%.
